# The supplement of paper PMC7826260
# Some of the results follow. Cleavage of a single-stranded DNA pool by Rep nickase domains was read by sequencing (1 h at 37 °C, 3 µM enzyme); the outer parts of the 90-letter strands are left off. Values are log2 of uncut reads against the no-enzyme pool; more negative means more cut, near 0 not cut, and no call is made. Shares of all reads are compared; uncut strands gain when others are lost, and binding without cutting may add a little.
# How the values were obtained:
# Test in all cases: uncleaved DNA left, log2 of reads against the no-enzyme library (log2 ratio); higher = less cleavage (more negative = more Rep cleavage of the k-mer); sequences stand for … in CTCGTCCG…ACCGGAGA
# [1] = test system: T1, Rep nickase domain of Muscovy duck circovirus
# T1 sequence (residues 1-111 of Rep, tag left off): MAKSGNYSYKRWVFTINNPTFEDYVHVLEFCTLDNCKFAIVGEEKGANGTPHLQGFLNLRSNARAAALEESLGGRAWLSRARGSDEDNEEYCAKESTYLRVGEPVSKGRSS
# Protocol: (§1)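 A pool of 90-nt single-stranded DNAs with seven random bases just before the constant AC of the nick site (name = the seven bases) was cut by 3 µM recombinant His6-SUMO-tagged Rep nickase domain (300 nM DNA, 50 mM HEPES pH 8.0, 50 mM NaCl, 1 mM MnCl2, 1 h, 37 °C, three replicates). Uncut DNA was amplified and sequenced.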
# [2] = test system: T2, Rep nickase domain of banana bunchy top virus
# T2 sequence (residues 1-94 of Rep, tag left off): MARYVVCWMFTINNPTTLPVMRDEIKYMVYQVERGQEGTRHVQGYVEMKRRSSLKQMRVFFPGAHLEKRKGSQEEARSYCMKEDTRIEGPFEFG
# Protocol: as §1
# [3] = test system: T3, Rep nickase domain of cabbage leaf curl virus
# T3 sequence (residues 1-116 of Rep, tag left off): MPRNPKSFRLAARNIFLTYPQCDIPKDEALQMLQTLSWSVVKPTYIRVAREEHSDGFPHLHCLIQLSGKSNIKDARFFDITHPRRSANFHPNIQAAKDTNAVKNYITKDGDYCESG
# Protocol: as §1
# [4] = test system: T4, Rep nickase domain of chickpea chlorotic dwarf virus
# T4 sequence (residues 1-124 of Rep, tag left off): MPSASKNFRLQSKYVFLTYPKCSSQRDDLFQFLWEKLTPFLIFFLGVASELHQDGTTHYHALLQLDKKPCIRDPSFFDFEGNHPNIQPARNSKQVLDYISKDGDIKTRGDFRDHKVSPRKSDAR
# Protocol: as §1
# [5] = test system: T5, Rep nickase domain of faba bean necrotic yellows virus
# T5 sequence (residues 1-98 of Rep, tag left off): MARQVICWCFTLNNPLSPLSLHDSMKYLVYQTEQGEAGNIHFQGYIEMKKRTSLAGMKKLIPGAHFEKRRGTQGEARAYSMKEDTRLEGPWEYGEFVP
# Protocol: as §1
# [6] = test system: T6, Rep nickase domain of maize striate mosaic virus
# T6 sequence (residues 1-117 of Rep, tag left off): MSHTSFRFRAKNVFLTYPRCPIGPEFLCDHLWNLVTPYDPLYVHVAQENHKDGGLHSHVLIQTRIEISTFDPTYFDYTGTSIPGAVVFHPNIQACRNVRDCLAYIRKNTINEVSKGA
# Protocol: as §1
# [7] = test system: T7, Rep nickase domain of porcine circovirus 2
# T7 sequence (residues 2-116 of Rep, tag left off): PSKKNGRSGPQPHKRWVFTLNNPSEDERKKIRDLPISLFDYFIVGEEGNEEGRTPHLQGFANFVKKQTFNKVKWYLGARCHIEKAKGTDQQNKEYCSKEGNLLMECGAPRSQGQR
# Protocol: as §1
# [8] = test system: T8, Rep nickase domain of tomato golden mosaic virus
# T8 sequence (residues 1-124 of Rep, tag left off): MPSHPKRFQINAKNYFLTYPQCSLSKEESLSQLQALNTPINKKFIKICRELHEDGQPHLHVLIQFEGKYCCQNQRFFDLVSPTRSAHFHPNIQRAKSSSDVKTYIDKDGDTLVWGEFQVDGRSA
# Protocol: as §1
# [9] = test system: T9, Rep nickase domain of tomato yellow leaf curl virus
# T9 sequence (residues 1-136 of Rep, tag left off): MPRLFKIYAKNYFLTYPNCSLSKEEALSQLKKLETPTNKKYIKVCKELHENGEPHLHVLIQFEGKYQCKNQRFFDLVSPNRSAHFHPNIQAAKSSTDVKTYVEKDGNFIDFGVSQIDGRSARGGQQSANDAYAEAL
# Protocol: as §1
# [10] = test system: T10, Rep nickase domain of wheat dwarf virus
# T10 sequence (residues 1-137 of Rep, tag left off): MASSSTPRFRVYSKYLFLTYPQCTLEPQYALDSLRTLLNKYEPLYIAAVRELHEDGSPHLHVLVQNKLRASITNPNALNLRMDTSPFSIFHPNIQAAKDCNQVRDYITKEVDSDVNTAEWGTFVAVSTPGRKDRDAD
# Protocol: as §1
Sequence,uncleaved DNA left (log2) [1],uncleaved DNA left (log2) [2],uncleaved DNA left (log2) [3],uncleaved DNA left (log2) [4],uncleaved DNA left (log2) [5],uncleaved DNA left (log2) [6],uncleaved DNA left (log2) [7],uncleaved DNA left (log2) [8],uncleaved DNA left (log2) [9],uncleaved DNA left (log2) [10]
TAACAAG,0.0326,0.0566,-0.941,-1.57,0.0327,-1.25,0.155,-0.00218,0.0422,0.0891
TCGCCAA,0.156,0.173,-0.121,-0.0918,-0.0576,-0.4,0.118,-0.0133,0.15,0.0456
CGAGAAA,0.164,0.125,0.11,0.262,0.146,-0.136,0.0148,0.2,0.126,0.15
TCGCACT,-0.271,-0.244,-0.0782,-1.66,-0.209,-0.263,-0.389,-0.296,-0.152,-0.19
GGACCAG,-0.063,0.0891,0.711,1.65,0.0125,1.8,0.116,-0.102,-0.143,0.11
AAAGTAG,0.0942,0.0334,-0.63,-0.489,0.0219,-1.2,0.236,0.0317,0.0943,-0.0636
CAGAGTA,0.0185,-0.168,-0.0749,-1.52,-0.0125,-0.463,-1.8,0.0955,0.0257,-0.0759
ATAAATC,0.137,0.167,0.177,-0.156,0.217,-0.67,0.153,0.14,0.139,0.104
AGCGCCG,-0.0513,-0.0841,-0.229,-0.031,-0.0626,-0.0305,0.026,0.0822,-0.104,-0.0486
ACGACAG,0.0542,0.11,-0.0995,0.216,0.0679,-0.0322,0.172,0.187,0.142,0.124
GCGGCTT,-0.119,-0.105,0.197,0.842,-0.181,1.67,-0.0583,-7.42e-05,-0.13,-0.167
ATCTCGG,-0.0114,-0.101,0.453,1.45,-0.00602,1.63,0.00882,0.101,-0.102,-0.000497
GAGTTCA,0.0408,0.00552,0.204,-0.366,-0.119,1.09,-2.55,0.136,0.278,0.141
GCTTCTA,-0.0354,0.108,0.108,0.0863,0.0892,0.555,-0.074,0.0786,0.0633,0.0528
GCTATGA,0.0937,0.0753,0.0758,0.537,-0.0983,0.114,0.0643,0.0724,0.0486,-0.0105
CAGTGTT,-2.99,-3.1,-1.91,-2.28,-3.01,0.509,-3.55,-0.463,-0.097,-0.527
ACGTGCG,-0.0503,-0.111,0.0664,1.43,-0.0934,1.4,0.0979,-0.121,-0.00349,-0.152
CATAAAA,-0.00713,0.0477,0.0339,-0.352,-0.00645,-0.807,0.176,0.108,0.0178,0.0246
GACCGAT,-0.0151,-0.0633,0.182,0.826,-0.0133,1.11,0.0645,0.0823,-0.0317,0.0932
GCTAGCA,0.064,0.0535,-0.159,-0.13,-0.00489,-0.678,0.0297,-0.00971,0.105,0.0913

Sequence,uncleaved DNA left (log2) [1],uncleaved DNA left (log2) [2],uncleaved DNA left (log2) [3],uncleaved DNA left (log2) [4],uncleaved DNA left (log2) [5],uncleaved DNA left (log2) [6],uncleaved DNA left (log2) [7],uncleaved DNA left (log2) [8],uncleaved DNA left (log2) [9],uncleaved DNA left (log2) [10]
CGCAGTT,-0.152,-0.0428,-0.138,-1.17,-0.0335,-0.347,-0.225,-0.182,-0.102,-0.101
GCTGCTA,-0.0774,-0.0328,-0.206,-0.0599,-0.101,0.0599,-0.108,-0.133,-0.0804,0.0114
AACCGGC,-0.0625,-0.12,-0.162,-0.262,-0.0647,-0.794,-0.0424,-0.0483,-0.12,-0.178
CTGTATC,-0.1,-0.125,-0.056,-0.0881,-0.253,-0.532,-0.24,-0.125,0.0452,-0.142
ACAGTTC,0.0449,-0.0209,-0.0649,-0.638,0.0236,-0.888,0.0397,0.0513,-0.151,-0.161
TCACCGA,0.0543,-0.0338,-0.288,-0.556,0.0196,-0.823,-0.0462,-0.0248,-0.0352,-0.149
CCGATGC,0.0316,0.0014,-0.329,-0.44,0.0322,-0.878,0.194,-0.0502,0.0478,-0.0766
TATACCA,-0.0437,-0.0199,0.0551,-2,0.0382,0.33,-0.263,-0.00434,0.0645,0.0968
TCATAGT,-3.24,-0.0434,-2.34,-2.56,0.00536,-1.21,-3.45,-0.0793,-0.0708,-0.254
GCGGTCC,-0.0904,-0.102,0.355,0.833,-0.133,1.27,-0.111,-0.0368,-0.00109,-0.0161
CCGTGTA,-0.0101,-0.0524,0.151,-0.286,0.16,0.00466,-0.255,0.0772,0.0408,0.00781
ATCCATC,0.0743,0.0175,0.0531,0.0999,0.106,-0.728,0.226,0.0482,0.268,0.143
AGCGGGA,0.112,0.195,0.185,0.675,0.146,1.09,0.0832,0.194,0.0952,0.219
AGGGTGC,0.0605,0.0243,-0.137,0.00901,0.0607,-0.547,0.212,-0.0469,0.104,0.0286
TATAGCA,0.0143,-0.0621,-0.48,-1.93,0.00516,-1.15,-0.225,-0.109,0.0812,0.00344
GGTGTCG,0.0684,-0.0835,-0.429,0.122,0.0161,-0.347,0.153,-0.053,-0.163,-0.0228
GCCTGGG,-0.0716,0.00768,-0.336,-0.0288,0.0188,-0.558,0.218,-0.0407,0.0172,0.0469
ACGCTGA,0.184,-0.0124,-0.00248,0.458,0.0666,0.26,0.177,0.152,-0.00961,-0.042
TTTCGGT,-0.0358,-0.0718,0.382,0.765,-0.159,1.31,-0.00728,-0.0495,-0.106,-0.125
CTCTGTG,0.0278,-0.196,-0.997,-0.247,0.0377,-0.973,0.0841,-0.0521,0.00944,-0.259

Sequence,uncleaved DNA left (log2) [1],uncleaved DNA left (log2) [2],uncleaved DNA left (log2) [3],uncleaved DNA left (log2) [4],uncleaved DNA left (log2) [5],uncleaved DNA left (log2) [6],uncleaved DNA left (log2) [7],uncleaved DNA left (log2) [8],uncleaved DNA left (log2) [9],uncleaved DNA left (log2) [10]
CGGGCCC,-0.0171,0.0395,0.487,0.97,0.0384,1.44,-0.00519,-0.0861,-0.0645,0.116
GAAGCAT,-0.0623,0.103,0.58,1.34,-0.0795,1.77,0.0684,-0.0432,-0.0174,0.0136
CTCTTAG,0.0448,-0.0385,-0.885,-0.324,-0.133,-1.13,0.155,-0.0269,-0.00265,-0.0942
TCAAGTG,0.0168,-0.0425,-0.296,-0.408,-0.123,-0.789,0.103,0.00681,-0.0442,0.00647
TATGGCT,-0.188,-0.122,-0.846,-1.8,-0.0957,-0.847,-0.164,-0.181,-0.192,-0.356
AACCGGG,0.0544,0.033,0.354,0.527,0.0595,0.256,0.17,0.0796,0.0891,0.146
GTATTGC,-0.0845,-0.12,-0.654,-0.463,-0.00697,-0.987,-0.0339,-0.0598,-0.0182,-0.168
ATGTTCC,0.0261,-0.014,0.0732,0.037,-0.0166,0.0958,-0.316,0.0389,0.063,0.0541
AGTCCCT,0.0995,0.149,0.715,1.11,0.0296,1.75,-1.21,0.0756,0.0153,0.248
AGGCAAC,0.117,0.0244,0.235,0.145,0.0463,0.369,0.0869,0.042,0.148,0.0548
CAGAGCT,-0.0773,-0.167,-0.356,-1.53,-0.0102,-0.858,-2.64,-0.0662,0.0497,-0.00353
AAAAAAC,0.0729,0.0872,0.0324,-0.47,-0.0137,-0.627,0.171,0.072,-0.00208,0.121
GCTAGGG,-0.0211,0.0744,-0.134,0.08,0.00888,-0.538,0.153,0.0256,0.000702,-0.0553
CAGCGGA,0.0526,-0.00626,-0.329,-0.329,-0.0393,-0.72,-0.13,0.107,-0.0377,-0.127
TAACTAA,0.0579,0.109,-0.408,-2.55,0.148,-0.418,0.106,0.0631,0.207,0.00306
GGCTGGG,-0.0123,-0.0761,0.0127,0.225,0.0559,0.00262,0.116,0.124,0.0171,-0.023
TGGTGCA,-0.0566,-0.0769,0.0615,-0.0734,-0.103,-0.272,-0.0947,-0.0199,0.0159,-0.0465
TTTTTAG,-0.043,-0.159,-0.749,-0.659,-0.0862,-1.26,0.0346,-0.105,-0.0221,-0.064
AGCGAGG,0.084,0.127,0.00218,0.783,0.0236,1.68,0.0966,0.253,0.0881,0.17
CTTTTCA,-0.146,-0.00383,0.00584,-1.2,-0.104,-0.645,-0.225,-0.0764,0.0979,0.0951
